Experimental data published in US12637513B2, “Method of treating cancer by administering an inhibitor of erythropoietin receptor activity comprising either erythropoietin receptor or erythropoietin protein” (ImmunEdge, Inc., priority 2022, dated 2026).

Columns and labels:
Conditions in all cases: hybridoma supernatants; 30 nM soluble receptor
[1] = target: T1, soluble hetero-EPOR (EPOR-CD131-Fc) (Homo sapiens, UniProt P19235+P32927); assay: Bio-layer interferometry (Octet) binding of hybridoma antibodies to EPOR-CD131-Fc
T1 construct: Chimeric Fc fusion proteins of the extracellular domains of human EPOR and human CD131; purchased Sino Biological CT010-H02H
T1 sequence (P19235 25-250 limits assumed): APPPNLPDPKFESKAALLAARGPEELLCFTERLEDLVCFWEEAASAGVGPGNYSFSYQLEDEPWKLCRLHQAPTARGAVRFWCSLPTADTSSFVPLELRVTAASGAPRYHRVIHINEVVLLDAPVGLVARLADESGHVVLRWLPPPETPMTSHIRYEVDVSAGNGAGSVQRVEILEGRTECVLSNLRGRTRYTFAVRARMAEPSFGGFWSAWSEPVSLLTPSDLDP
T1 sequence (P32927 17-443 limits assumed): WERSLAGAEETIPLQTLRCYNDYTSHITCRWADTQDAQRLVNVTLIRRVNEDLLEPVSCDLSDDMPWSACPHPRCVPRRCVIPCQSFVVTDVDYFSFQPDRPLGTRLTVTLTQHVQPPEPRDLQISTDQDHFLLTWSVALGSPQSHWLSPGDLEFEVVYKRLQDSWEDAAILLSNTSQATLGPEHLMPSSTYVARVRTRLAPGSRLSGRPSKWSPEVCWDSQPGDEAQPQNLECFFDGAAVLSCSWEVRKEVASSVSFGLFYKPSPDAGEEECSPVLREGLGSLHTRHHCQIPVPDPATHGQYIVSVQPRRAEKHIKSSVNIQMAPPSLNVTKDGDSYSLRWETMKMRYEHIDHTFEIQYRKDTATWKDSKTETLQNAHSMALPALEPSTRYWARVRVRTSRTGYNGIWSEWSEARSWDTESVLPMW
Description: (§1) The B cells from ATX-GK mice were fused with mouse myeloma cells to generate hybridoma. The hybridoma cells were screened twice. In the first screening, 293 cells expressing human EPOR, human CD131, or both were used as the primary screen. 87 hybridoma antibodies have been isolated by positive staining on 293T cells expressing human EPOR (hEPOR), human CD131 (hCD131), or both, with the hybridoma supernatants (Table 11 and FIG. 17). Expression of EPOR and CD131 was confirmed by flow cytometry with Phycoerythrin (PE)-labeled anti-EPOR (R&D Systems, Cat #FAB307P) and Alexa Fluor® 647 (AF647)-labeled anti-CD131 (BD Biosciences, Cat #564191), respectively (FIG. 28B). All hybridoma clones were purified and sequenced. Binding kinetics with soluble hetero-EPOR (EPOR-CD131-Fc), soluble EPO receptor subunit of hetero-EPOR (EPOR-Fc), and soluble CD131 subunit of hetero-EPOR (CD131-Fc) were measured using bio-layer interferometry (Octet®) by capturing the hybridoma antibodies in the supernatants on biosensors coated with anti-mouse Fc first and dipping the biosensors into the solutions containing 30 nM of the soluble receptor Fc fusion proteins. The supernatants were also used to block the interaction between EPO and EPOR. The soluble EPOR-CD131-Fc was first captured on biosensors coated with anti-human Fc and then dipped into 10 nM of EPO with or without the hybridoma supernatants. […]

EPOR-Fc = target: T2, EPOR-Fc (Homo sapiens, UniProt P19235); assay: Bio-layer interferometry (Octet) binding of hybridoma antibodies to EPOR-Fc
T2 construct: The extracellular domains of EPOR or CD131 are produced as soluble Fc fusion proteins; purchased Sino Biological 10707-H02H
T2 sequence (P19235 25-250 limits assumed): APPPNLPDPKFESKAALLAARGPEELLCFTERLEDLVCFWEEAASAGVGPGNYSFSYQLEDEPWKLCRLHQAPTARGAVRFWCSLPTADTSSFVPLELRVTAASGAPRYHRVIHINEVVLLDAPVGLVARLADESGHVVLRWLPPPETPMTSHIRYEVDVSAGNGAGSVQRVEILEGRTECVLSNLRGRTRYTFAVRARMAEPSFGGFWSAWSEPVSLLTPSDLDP
Description: as §1

CD131-Fc = target: T3, CD131-Fc (Homo sapiens, UniProt P32927); assay: Bio-layer interferometry (Octet) binding of hybridoma antibodies to CD131-Fc
T3 construct: The extracellular domains of EPOR or CD131 are produced as soluble Fc fusion proteins; made in house
T3 sequence (P32927 17-443 limits assumed): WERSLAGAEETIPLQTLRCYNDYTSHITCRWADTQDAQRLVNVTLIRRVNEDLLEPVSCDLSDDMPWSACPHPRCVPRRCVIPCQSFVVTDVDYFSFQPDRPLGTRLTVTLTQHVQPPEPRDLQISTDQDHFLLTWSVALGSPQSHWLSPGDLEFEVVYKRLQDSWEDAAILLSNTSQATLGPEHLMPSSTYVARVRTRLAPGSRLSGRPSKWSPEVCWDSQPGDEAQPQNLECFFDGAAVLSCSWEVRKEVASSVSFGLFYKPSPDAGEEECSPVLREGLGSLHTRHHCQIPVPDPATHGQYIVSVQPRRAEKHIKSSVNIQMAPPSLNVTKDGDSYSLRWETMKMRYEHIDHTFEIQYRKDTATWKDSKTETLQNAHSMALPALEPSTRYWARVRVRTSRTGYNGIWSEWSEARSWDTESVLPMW
Description: as §1

binding to EPOR-CD131-Fc [1]: high affinity | binding to EPOR-Fc (EPOR-Fc): high affinity | binding to CD131-Fc (CD131-Fc): high affinity
B1: EPORab - M26: hybridoma antibody clone, VH/VK in Table 10 (antibody, V domains shown)
VH: QVQLVQSGVEVKKPGASVKVSCKASGYAFSNNDISWVRQAPGQGLEWMAWITTSNGNTNYAPKLQGRVTMTTDTSTSTAYMELRSLKSDDTAVYYCARGGRTGYFDYWGQGTLVTVSS
VL: [left out - about 100 residues]QIPLTFGGGTKVEIR
